Results taken from patent US8883841B2, “Oncogenic ras-specific cytotoxic compound and methods of use thereof” (The Board of Regents of the University of Texas System, priority 2005, dated 2014).

How the values were obtained:
[1] = system: M14; experiment: NCI in-vitro testing, M14 (Melanoma)
[2] = system: MOLT-4; experiment: NCI in-vitro testing, MOLT-4 (Leukemia)
[3] = system: U251; experiment: NCI in-vitro testing, U251 (CNS Cancer)
[4] = system: HT29; experiment: NCI in-vitro testing, HT29 (Colon Cancer); conditions: HT20
[5] = system: KM12; experiment: NCI in-vitro testing, KM12 (Colon Cancer)
[6] = system: SF-295; experiment: NCI in-vitro testing, SF-295 (CNS Cancer)
[7] = system: SF-539; experiment: NCI in-vitro testing, SF-539 (CNS Cancer)
[8] = system: LOX IMVI; experiment: NCI in-vitro testing, LOX IMVI (Melanoma)
[9] = system: MALME-3M; experiment: NCI in-vitro testing, MALME-3M (Melanoma)
[10] = system: RPMI-8226; experiment: NCI in-vitro testing, RPMI-8226 (Leukemia)
[11] = system: TK-10; experiment: NCI in-vitro testing, TK-10 (Renal Cancer)
[12] = system: UO-31; experiment: NCI in-vitro testing, UO-31 (Renal Cancer)
[13] = system: MCF7; experiment: NCI in-vitro testing, MCF7 (Breast Cancer)
[14] = system: HCT-15; experiment: NCI in-vitro testing, HCT-15 (Colon Cancer)
[15] = system: RXF 393; experiment: NCI in-vitro testing, RXF 393 (Renal Cancer)
[16] = system: COLO 205; experiment: NCI in-vitro testing, COLO 205 (Colon Cancer)
[17] = system: HCC-2998; experiment: NCI in-vitro testing, HCC-2998 (Colon Cancer)
[18] = system: OVCAR-3; experiment: NCI in-vitro testing, OVCAR-3 (Ovarian Cancer)
[19] = system: OVCAR-5; experiment: NCI in-vitro testing, OVCAR-5 (Ovarian Cancer)
[20] = system: DU-145; experiment: NCI in-vitro testing, DU-145 (Prostate Cancer)
[21] = system: EKVX; experiment: NCI in-vitro testing, EKVX (Non-Small Cell Lung Cancer)
[22] = Log10 Concentration −4.0 (Molar)
[23] = Log10 Concentration −5.0 (Molar)
[24] = Log10 Concentration −6.0 (Molar)
[25] = Log10 Concentration −7.0 (Molar)
[26] = Log10 Concentration −8.0 (Molar)

## OCc1cn(Cc2ccc(Cl)cc2)c2ccccc12 [Oncrasin K060, 1H-Indole-3-methanol, 1-[(4-chlorophenyl)methyl]-]
[1]; [22]
  Mean Optical Densities: 0.090
[1]; [23]
  Mean Optical Densities: 0.760
[1]; [24]
  Mean Optical Densities: 1.259
[1]; [25]
  Mean Optical Densities: 1.327
[1]; [26]
  Mean Optical Densities: 1.333
[2]; [22]
  Mean Optical Densities: 0.177
[2]; [23]
  Mean Optical Densities: 1.630
[2]; [24]
  Mean Optical Densities: 1.921
[2]; [25]
  Mean Optical Densities: 1.827
[2]; [26]
  Mean Optical Densities: 1.982
[3]; [22]
  Mean Optical Densities: 0.258
[3]; [23]
  Mean Optical Densities: 0.737
[3]; [24]
  Mean Optical Densities: 1.299
[3]; [25]
  Mean Optical Densities: 1.550
[3]; [26]
  Mean Optical Densities: 1.673
[4]; [22]
  Mean Optical Densities: 0.090
[4]; [23]
  Mean Optical Densities: 0.725
[4]; [24]
  Mean Optical Densities: 1.183
[4]; [25]
  Mean Optical Densities: 1.533
[4]; [26]
  Mean Optical Densities: 1.910
[5]; [22]
  Mean Optical Densities: 0.156
[5]; [23]
  Mean Optical Densities: 1.236
[5]; [24]
  Mean Optical Densities: 1.387
[5]; [25]
  Mean Optical Densities: 1.495
[5]; [26]
  Mean Optical Densities: 1.441
[6]; [22]
  Mean Optical Densities: 0.608
[6]; [23]
  Mean Optical Densities: 0.991
[6]; [24]
  Mean Optical Densities: 1.603
[6]; [25]
  Mean Optical Densities: 1.964
[6]; [26]
  Mean Optical Densities: 2.364
[7]; [22]
  Mean Optical Densities: 0.116
[7]; [23]
  Mean Optical Densities: 0.987
[7]; [24]
  Mean Optical Densities: 1.496
[7]; [25]
  Mean Optical Densities: 1.556
[7]; [26]
  Mean Optical Densities: 1.534
[8]; [22]
  Mean Optical Densities: 0.053
[8]; [23]
  Mean Optical Densities: 0.814
[8]; [24]
  Mean Optical Densities: 2.024
[8]; [25]
  Mean Optical Densities: 2.007
[8]; [26]
  Mean Optical Densities: 2.124
[9]; [22]
  Mean Optical Densities: 0.217
[9]; [23]
  Mean Optical Densities: 0.592
[9]; [24]
  Mean Optical Densities: 0.704
[9]; [25]
  Mean Optical Densities: 0.760
[9]; [26]
  Mean Optical Densities: 0.742
[10]; [22]
  Mean Optical Densities: 0.248
[10]; [23]
  Mean Optical Densities: 0.290
[10]; [24]
  Mean Optical Densities: 0.649
[10]; [25]
  Mean Optical Densities: 1.341
[10]; [26]
  Mean Optical Densities: 1.733
[11]; [22]
  Mean Optical Densities: 0.514
[11]; [23]
  Mean Optical Densities: 0.574
[11]; [24]
  Mean Optical Densities: 0.685
[11]; [25]
  Mean Optical Densities: 0.607
[11]; [26]
  Mean Optical Densities: 1.074
[12]; [22]
  Mean Optical Densities: 0.292
[12]; [23]
  Mean Optical Densities: 0.594
[12]; [24]
  Mean Optical Densities: 1.026
[12]; [25]
  Mean Optical Densities: 1.200
[12]; [26]
  Mean Optical Densities: 1.290
[13]; [22]
  Mean Optical Densities: 0.340
[13]; [23]
  Mean Optical Densities: 0.509
[13]; [24]
  Mean Optical Densities: 0.551
[13]; [25]
  Mean Optical Densities: 1.146
[13]; [26]
  Mean Optical Densities: 1.653
[14]; [22]
  Mean Optical Densities: 0.214
[14]; [23]
  Mean Optical Densities: 0.597
[14]; [24]
  Mean Optical Densities: 1.238
[14]; [25]
  Mean Optical Densities: 1.514
[14]; [26]
  Mean Optical Densities: 1.635
[15]; [22]
  Mean Optical Densities: 0.041
[15]; [23]
  Mean Optical Densities: 0.186
[15]; [24]
  Mean Optical Densities: 0.237
[15]; [25]
  Mean Optical Densities: 0.295
[15]; [26]
  Mean Optical Densities: 0.380
[16]; [22]
  Mean Optical Densities: 0.047
[16]; [23]
  Mean Optical Densities: 0.295
[16]; [24]
  Mean Optical Densities: 0.533
[16]; [25]
  Mean Optical Densities: 0.839
[16]; [26]
  Mean Optical Densities: 0.873
[17]; [22]
  Mean Optical Densities: 0.012
[17]; [23]
  Mean Optical Densities: 0.740
[17]; [24]
  Mean Optical Densities: 0.887
[17]; [25]
  Mean Optical Densities: 1.088
[17]; [26]
  Mean Optical Densities: 1.162
[18]; [22]
  Mean Optical Densities: 0.158
[18]; [23]
  Mean Optical Densities: 0.399
[18]; [24]
  Mean Optical Densities: 0.807
[18]; [25]
  Mean Optical Densities: 1.164
[18]; [26]
  Mean Optical Densities: 1.349
[19]; [22]
  Mean Optical Densities: 0.185
[19]; [23]
  Mean Optical Densities: 0.283
[19]; [24]
  Mean Optical Densities: 0.940
[19]; [25]
  Mean Optical Densities: 0.428
[19]; [26]
  Mean Optical Densities: 0.628
[20]; [22]
  Mean Optical Densities: 0.100
[20]; [23]
  Mean Optical Densities: 0.475
[20]; [24]
  Mean Optical Densities: 0.821
[20]; [25]
  Mean Optical Densities: 0.888
[20]; [26]
  Mean Optical Densities: 0.885
[21]; [22]
  Mean Optical Densities: 0.470
[21]; [23]
  Mean Optical Densities: 1.526
[21]; [24]
  Mean Optical Densities: 1.662
[21]; [25]
  Mean Optical Densities: 1.828
[21]; [26]
  Mean Optical Densities: 1.511
